# From the supplement of paper PMC4967469
# The IC50 comes from the fitted curve, where viability falls to half of the control; fits outside the tested doses are given as limits. For AUC the same curve is integrated over the 256-fold range of doses and scaled to a fraction: 1 means no effect, lower means more sensitive. For part of these data: A top dose marked as inferred was derived from the fitted curves, not read from the paper. For part of these data: Where an entry number is given, a second screen of the drug exists; the two often differ.
# Key:
# Assay in all cases: Viability of human cancer cell lines after 72 h of drug (GDSC screen)
# Epothilone B = compound: C/C(=C\c1csc(C)n1)[C@@H]1C[C@@H]2O[C@]2(C)CCC[C@H](C)[C@H](O)[C@@H](C)C(=O)C(C)(C)[C@@H](O)CC(=O)O1 [Epothilone B]; details: top dose 0.032 µM; top dose inferred
# Method: (§1)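 Human cancer cell lines in 384-well plates, medium with 10% serum, drug for 72 h over a 256-fold dose range (nine 2-fold or five 4-fold steps up to the top dose). Adherent lines were fixed and stained with the nucleic acid dye Syto60, suspension lines read with resazurin; signal relative to control wells, capped at 0 and 100%. One two-parameter sigmoid per drug and line, fitted in a mixed model over all curves with the slope shared within a line.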
# PHA-793887 = compound: CC(C)CC(=O)Nc1n[nH]c2c1CN(C(=O)C1CCN(C)CC1)C2(C)C [PHA-793887]; details: top dose 10.24 µM
# Method: as §1
# Y-39983 = compound: C[C@@H](N)c1ccc(C(=O)Nc2ccnc3[nH]ccc23)cc1 [Y-39983]; details: top dose 20 µM; top dose inferred
# Method: as §1
# TPCA-1 = compound: NC(=O)Nc1sc(-c2ccc(F)cc2)cc1C(N)=O [TPCA-1]; details: top dose 20 µM
# Method: as §1
# PLX4720 = compound: CCCS(=O)(=O)Nc1ccc(F)c(C(=O)c2c[nH]c3ncc(Cl)cc23)c1F [PLX4720]; details: top dose 10 µM
# Method: as §1
# [1] = screen: GDSC drug entry 1371, top dose inferred
Cell Line,AUC (Epothilone B),IC50 (Epothilone B) [nM],AUC (PHA-793887),IC50 (PHA-793887) [µM],AUC (Y-39983),IC50 (Y-39983) [µM],AUC (TPCA-1),IC50 (TPCA-1) [µM],AUC (PLX4720; screen: GDSC drug entry 1036),IC50 (PLX4720; screen: GDSC drug entry 1036) [µM],AUC (PLX4720; [1]),IC50 (PLX4720; [1]) [µM]
"A375 (melanoma, adherent)",0.229,0.393,0.991,> 10.2,0.978,> 20,,,,,,
"BICR31 (head and neck, adherent)",0.486,1.83,0.968,> 10.2,0.962,> 20,0.933,> 20,,,,
"CFPAC-1 (pancreas, adherent)",0.424,1.2,0.853,9.93,0.984,> 20,0.949,> 20,,,,
"Caov-3 (ovary, adherent)",0.776,11.2,0.584,1.06,0.973,> 20,0.886,17.5,,,,
"H290 (mesothelioma, adherent)",0.654,5.14,0.931,> 10.2,,,,,0.983,> 10,0.988,> 10
"HCC202 (breast, adherent)",0.812,26.6,,,0.977,> 20,0.966,> 20,0.926,> 10,0.978,> 10
"HPAC (pancreas, adherent)",0.47,1.61,0.66,2.15,0.979,> 20,0.722,7.04,,,,
"Hs746T (stomach, adherent)",,,0.926,> 10.2,0.919,> 20,0.923,> 20,0.976,> 10,0.978,> 10
"IGR-37 (melanoma, adherent)",0.394,1.06,0.989,> 10.2,0.988,> 20,,,0.262,0.141,0.313,0.198
"IM-95 (stomach, adherent)",0.569,3.12,0.749,3.53,0.915,> 20,0.83,13.8,,,,
"JHOS-2 (ovary, adherent)",,,0.967,> 10.2,0.973,> 20,0.668,3.98,0.882,> 10,0.959,> 10
"JHOS-3 (ovary, adherent)",,,0.947,> 10.2,0.981,> 20,0.887,> 20,0.98,> 10,0.962,> 10
"JHU-029 (head and neck, adherent)",0.436,1.28,,,,,,,0.962,> 10,0.95,> 10
"KMS-11 (myeloma, suspension)",,,0.892,8.95,0.955,> 20,0.806,8.47,0.954,> 10,0.978,> 10
"KP-1N (pancreas, adherent)",0.506,2.07,,,,,,,0.948,> 10,0.921,> 10
"KYAE-1 (oesophagus, suspension)",,,0.827,7.16,0.968,> 20,0.821,13.2,0.933,> 10,0.966,> 10
"NCC021 (kidney, adherent)",,,0.985,> 10.2,0.896,> 20,0.819,13.8,0.948,> 10,0.966,> 10
"NCI-H630 (large intestine, adherent)",,,0.986,> 10.2,0.983,> 20,0.877,> 20,0.987,> 10,0.987,> 10
"NCI-H1734 (lung adenocarcinoma, adherent)",0.779,14.4,0.82,6.64,0.951,> 20,0.901,> 20,,,,
"NCI-H2023 (lung adenocarcinoma, adherent)",,,0.947,> 10.2,0.979,> 20,0.927,> 20,0.938,> 10,0.974,> 10
"NCI-H2228 (lung adenocarcinoma, adherent)",0.316,0.465,0.95,> 10.2,0.962,> 20,0.861,> 20,,,,
"OACM5-1 (oesophagus, semi-adherent)",,,0.635,1.59,0.854,19,0.509,1.33,0.958,> 10,0.985,> 10
"OACp4C (oesophagus, adherent)",,,0.851,> 10.2,0.681,4.48,0.489,1.16,0.974,> 10,0.973,> 10
"OC-314 (ovary, adherent)",,,0.702,2.15,0.946,> 20,0.771,6.63,0.951,> 10,0.981,> 10
"OV-7 (ovary, adherent)",,,0.836,> 10.2,0.767,11.5,0.852,> 20,0.864,> 10,0.771,6
"OV-17R (ovary, adherent)",,,0.981,> 10.2,0.945,> 20,0.86,> 20,0.977,> 10,0.973,> 10
"OV-56 (ovary, adherent)",,,0.903,> 10.2,0.96,> 20,0.961,> 20,0.946,> 10,0.985,> 10
"OVCA420 (ovary, adherent)",,,0.979,> 10.2,0.965,> 20,0.904,> 20,0.982,> 10,0.975,> 10
